Experimental data from PubChem BioAssay AID1645882 (National Center for Advancing Translational Sciences (NCATS), 2021).
Among all 16,000 compounds or so, about 120 (0.75%) were called active. About 4% were inconclusive and are not listed. The call rests on the fitted dose curve; in most records, active means well fitted inhibition curve with a large enough effect; inconclusive means small, poorly fitted or top-dose-only effect; inactive means no such curve, though single readings can be large or run the other way. Some of the results follow.

molecular target: Rap guanine nucleotide exchange factor 3 (Homo sapiens) (UniProt O95398); assay: Validation qHTS for antagonist of cAMP-regulated guanine nucleotide exchange factor 3 (EPAC1); conditions: EPAC1 Rap1B-BODIPY-GDP exchange, fluorescence; series mostly up to 150 µM; activity change, negative = inhibition: at the top concentration;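 further: plate controls were DMSO for no effect and ATA control for full effect; nearly all actives have a fitted effect of over 75% in size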
Summary of the method: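 Nucleotide exchange followed as fluorescence loss when BODIPY-GDP leaves Rap1B (480 nm excitation, 540 nm emission), read at 5 min intervals over 30 min. Reaction: 100 nM EPAC1, 250 nM RAP1B-BODIPY-GDP, 50 uM GDP; ATA and DMSO define normalization.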

UniProt O95398, sequence (O95398 whole entry, looked up): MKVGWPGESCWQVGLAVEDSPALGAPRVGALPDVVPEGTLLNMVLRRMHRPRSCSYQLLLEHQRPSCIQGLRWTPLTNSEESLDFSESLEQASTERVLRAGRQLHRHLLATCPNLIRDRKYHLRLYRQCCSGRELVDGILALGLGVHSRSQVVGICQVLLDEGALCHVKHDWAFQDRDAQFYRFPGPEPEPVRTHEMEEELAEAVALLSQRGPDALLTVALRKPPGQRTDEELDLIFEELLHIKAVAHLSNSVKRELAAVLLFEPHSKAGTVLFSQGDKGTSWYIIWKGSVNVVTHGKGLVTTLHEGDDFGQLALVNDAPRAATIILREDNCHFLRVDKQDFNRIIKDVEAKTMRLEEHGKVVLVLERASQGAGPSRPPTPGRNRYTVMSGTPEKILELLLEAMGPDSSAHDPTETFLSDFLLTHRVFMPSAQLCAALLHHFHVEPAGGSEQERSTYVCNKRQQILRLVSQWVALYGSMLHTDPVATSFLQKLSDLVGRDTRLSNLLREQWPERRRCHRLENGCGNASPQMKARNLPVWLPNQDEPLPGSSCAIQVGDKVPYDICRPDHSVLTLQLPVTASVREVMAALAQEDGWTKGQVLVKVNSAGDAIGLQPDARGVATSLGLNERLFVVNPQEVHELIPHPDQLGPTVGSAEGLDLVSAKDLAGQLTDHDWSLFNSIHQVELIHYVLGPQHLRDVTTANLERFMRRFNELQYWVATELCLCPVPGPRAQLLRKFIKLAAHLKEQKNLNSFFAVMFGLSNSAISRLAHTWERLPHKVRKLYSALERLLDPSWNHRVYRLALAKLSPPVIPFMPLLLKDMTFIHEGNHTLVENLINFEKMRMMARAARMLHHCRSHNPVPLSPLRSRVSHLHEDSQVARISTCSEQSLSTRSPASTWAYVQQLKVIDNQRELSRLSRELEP

Activity change, negative = inhibition, inactive:
COc1ccc(C(=O)CCC(=O)O)c2ccccc12 10.2%
CCCN1CC(CSC)C[C@H]2c3cccc4[nH]cc(c34)C[C@H]21 (some centres not stated) 12.6%
CCCCN1CCC(n2c(=O)[nH]c3ccccc32)CC1 4.94% [at 75.8 µM]
CCCCN1CC[C@H]2C=CC[C@@H](C(=O)Nc3ccc(Cl)cc3Cl)[C@H]2C1=O -4.42%
NC(=O)c1ccccc1O 13.2%
Cc1cccc2cc(CN(C(=O)c3ccc(-c4ccc(F)cc4)cc3)C3CC3)c(N3CCC(O)CC3)nc12 -8.44%
COc1cc(CN2CCCC(n3cc(C(=O)N4CCCCC4)nn3)C2)cc(OC)c1 (configuration not stated) -2.79%
COCCn1c(=O)c(-c2cccs2)nc2cnc(N3CCNCC3)nc21 -1.88%
CCOC(=O)c1ccc(NC(=O)CN2CCCCC2)cc1 1.27%
O=C([C@@H]1C[C@@H](Sc2nc3ccccc3[nH]2)CN1Cc1c(F)cccc1F)N1CCOCC1 13.7%
COc1ccc(CNc2cc(-c3cccnc3)ncn2)c(OC)c1 7.91%
COCCn1c(=O)c(C)nc2cnc(OCc3ccccc3)nc21 4.13%
O=C(OCCN1CCOCC1)C1(c2ccccc2)CCCCC1
CC(C)C[C@H](NC(=O)[C@H](Cc1ccccc1)NC(=O)c1cnccn1)B(O)O
COC(F)(F)C(Cl)Cl 5.09%
O=C1C(c2c(O)[nH]c3ccccc23)=Nc2ccccc21
O=C(c1csnn1)N1CCC2(CCCN(Cc3ccccc3)C2)CC1 -3.75%
CO[C@@H]1[C@@H](O[C@@H]2O[C@H](C)[C@@H](O[C@H]3C[C@@](C)(O)[C@@H](O)[C@H](C)O3)[C@H](N(C)C)[C@H]2O)[C@@H](CC=O)C[C@@H](C)[C@@H](O[C@@H]2CC[C@H](N(C)C)[C@@H](C)O2)/C=C/C=C/C[C@@H](C)OC(=O)C[C@H]1O 10.8% [at 75.8 µM]
CCNc1ncc2nc(CCc3ccccc3)c(=O)n(C3CC3)c2n1 5.16%
CC(C)C(C)/C=C/C(C)C1CCC2C3=CC=C4CC(O)CCC4(C)C3CCC21C (configuration not stated) -16.9%
COc1ccc(-c2coc3cc(O)ccc3c2=O)cc1
Cc1cnc(-n2ncc(C(=O)N(C)Cc3cccc4ncccc34)c2C(C)C)nc1-c1ccc(F)cc1 6.03%
O=c1c(-c2ccccc2)nc2cnc(N3CCNCC3)nc2n1-c1ccccc1 1.09%
COc1ccccc1CN1CCCC(n2cc(C(=O)N3CCCCC3)nn2)C1 (configuration not stated) 1.35%
Oc1c(Br)cc(Br)c2cccnc12 15.2%
CCC(=O)O[C@H]1CC[C@H]2[C@@H]3CCc4cc(O)ccc4[C@H]3CC[C@]12C -18%
CS(=O)(=O)Nc1cccc(-c2nc(Nc3ccc(F)cc3)c3ccccc3n2)c1 14.3%
